Measurements as given in the supplement of paper PMC8728848.
The list shows a part of the results.

Key:
Test in all cases: glycan array binding signal (z-score within array); higher = stronger binding
Conditions in all cases: glycan notation: IUPAC condensed, linker removed
Gal4S6S(b1-4)GlcNAc = molecular target: Gal4S6S(b1-4)GlcNAc
Summary of the method: (§1)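 Columns mapping to the same glycan were averaged after glycan names were converted to IUPAC-condensed notation. The data come from 3228 arrays in the Consortium for Functional Glycomics database, limited to those with an available protein sequence. Binding is reported as a within-array Z-score averaged across arrays of one protein sequence and across linkers.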

Gal6S(b1-4)Glc = molecular target: Gal6S(b1-4)Glc
Summary of the method: as §1

Gal6S(b1-4)Glc6S = molecular target: Gal6S(b1-4)Glc6S
Summary of the method: as §1

Gal6S(b1-4)GlcNAc = molecular target: Gal6S(b1-4)GlcNAc
Summary of the method: as §1

GalNAc(a1-3)Gal = molecular target: GalNAc(a1-3)Gal
Summary of the method: as §1

GalNAc(a1-3)GalNAc = molecular target: GalNAc(a1-3)GalNAc
Summary of the method: as §1

[1] = molecular target: GalNAc(b1-3)Gal(a1-4)Gal(b1-4)GlcNAc
Summary of the method: as §1

GalNAc(b1-3)GalNAc = molecular target: GalNAc(b1-3)GalNAc
Summary of the method: as §1

GalNAc(b1-4)GlcNAc = molecular target: GalNAc(b1-4)GlcNAc
Summary of the method: as §1

Glc(a1-4)Glc = molecular target: Glc(a1-4)Glc
Summary of the method: as §1

Glc(a1-6)Glc(a1-6)Glc = molecular target: Glc(a1-6)Glc(a1-6)Glc
Summary of the method: as §1

Glc(b1-4)Glc = molecular target: Glc(b1-4)Glc
Summary of the method: as §1

Glc(b1-6)Glc = molecular target: Glc(b1-6)Glc
Summary of the method: as §1

GlcA(b1-3)Gal = molecular target: GlcA(b1-3)Gal
Summary of the method: as §1

GlcA(b1-6)Gal = molecular target: GlcA(b1-6)Gal
Summary of the method: as §1

[2] = molecular target: GlcNAc(a1-3)Gal(b1-4)GlcNAc
Summary of the method: as §1

[3] = molecular target: GlcNAc(a1-6)Gal(b1-4)GlcNAc
Summary of the method: as §1

[4] = molecular target: GlcNAc(b1-2)Gal(b1-3)GalNAc
Summary of the method: as §1

[5] = molecular target: GlcNAc(b1-2)Man(a1-3)[GlcNAc(b1-2)Man(a1-6)]Man(b1-4)GlcNAc(b1-4)GlcNAc
Summary of the method: as §1

GlcNAc(b1-3)Gal = molecular target: GlcNAc(b1-3)Gal
Summary of the method: as §1

[6] = molecular target: GlcNAc(b1-3)Gal(b1-3)GalNAc
Summary of the method: as §1

GlcNAc(b1-3)Gal(b1-4)Glc = molecular target: GlcNAc(b1-3)Gal(b1-4)Glc
Summary of the method: as §1

[7] = molecular target: GlcNAc(b1-3)Gal(b1-4)GlcNAc
Summary of the method: as §1

[8] = molecular target: GlcNAc(b1-3)Gal(b1-4)GlcNAc(b1-3)Gal(b1-4)GlcNAc
Summary of the method: as §1

GlcNAc(b1-3)GalNAc = molecular target: GlcNAc(b1-3)GalNAc
Summary of the method: as §1

[9] = molecular target: GlcNAc(b1-3)[GlcNAc(b1-6)]Gal(b1-4)GlcNAc
Summary of the method: as §1

[10] = molecular target: GlcNAc(b1-3)[GlcNAc(b1-6)]GalNAc
Summary of the method: as §1

[11] = molecular target: GlcNAc(b1-3)[GlcNAc(b1-6)]GlcNAc(b1-4)GlcNAc
Summary of the method: as §1

[12] = molecular target: GlcNAc(b1-4)Gal(b1-4)GlcNAc
Summary of the method: as §1

[13] = molecular target: GlcNAc(b1-4)GlcNAc(b1-4)GlcNAc
Summary of the method: as §1

[14] = molecular target: GlcNAc(b1-4)GlcNAc(b1-4)GlcNAc(b1-4)GlcNAc(b1-4)GlcNAc
Summary of the method: as §1

[15] = molecular target: GlcNAc(b1-4)GlcNAc(b1-4)GlcNAc(b1-4)GlcNAc(b1-4)GlcNAc(b1-4)GlcNAc
Summary of the method: as §1

[16] = molecular target: GlcNAc(b1-4)[GlcNAc(b1-6)]GalNAc
Summary of the method: as §1

[17] = molecular target: GlcNAc(b1-6)Gal(b1-4)GlcNAc
Summary of the method: as §1

GlcNAc(b1-6)GalNAc = molecular target: GlcNAc(b1-6)GalNAc
Summary of the method: as §1

Kdn(a2-3)Gal(b1-3)GlcNAc = molecular target: Kdn(a2-3)Gal(b1-3)GlcNAc
Summary of the method: as §1

Kdn(a2-3)Gal(b1-4)GlcNAc = molecular target: Kdn(a2-3)Gal(b1-4)GlcNAc
Summary of the method: as §1

[18] = molecular target: Man(a1-2)Man(a1-2)Man(a1-3)Man
Summary of the method: as §1

[19] = molecular target: Man(a1-2)Man(a1-2)Man(a1-6)[Man(a1-3)]Man
Summary of the method: as §1

Man(a1-2)Man(a1-3)Man = molecular target: Man(a1-2)Man(a1-3)Man
Summary of the method: as §1

[20] = molecular target: Man(a1-2)Man(a1-3)[Man(a1-2)Man(a1-6)]Man
Summary of the method: as §1

[21] = molecular target: Man(a1-2)Man(a1-3)[Man(a1-2)Man(a1-6)]Man(a1-6)[Man(a1-2)Man(a1-2)Man(a1-3)]Man(b1-4)GlcNAc(b1-4)GlcNAc
Summary of the method: as §1

[22] = molecular target: Man(a1-2)Man(a1-3)[Man(a1-6)]Man(a1-6)[Man(a1-2)Man(a1-3)]Man(b1-4)GlcNAc(b1-4)GlcNAc
Summary of the method: as §1

[23] = molecular target: Man(a1-2)Man(a1-6)[Man(a1-3)]Man(a1-6)[Man(a1-2)Man(a1-2)Man(a1-3)]Man(b1-4)GlcNAc(b1-4)GlcNAc
Summary of the method: as §1

Man(a1-3)[Man(a1-6)]Man = molecular target: Man(a1-3)[Man(a1-6)]Man
Summary of the method: as §1

B1: F4 (Escherichia coli), A0A6L9DDF0 (protein)
chain: MKKTLIALALAASAVSGMAHAWTSGDFNGTVDIGGSIDATNYRQKWEWEVGTGLNGFYNALSELTNNDTKLTITVTGNKPILLGRTKEAFVTPTAGGWGGIPQIAFTDYKGAPVELKNPDGETNKGLAYFVLPMKNADGTEAGSVRVNASYAGAVVEKTSDSSAKLFSAYAGEVIRIFNGGLPVNVTQSELQSGVAAADRTALFGSLGKADLVAQFQAVIPGATVTDGTSSEHCTMRLLASAAYALGIADGQTIEATFNQAVTTSTQWSAPLNVAITYY
**Q.** For B1, which “glycan array binding signal (z-score)” value (Gal4S6S(b1-4)GlcNAc) is on record?
**A.** The value was 0.285.

**Q.** What about the “glycan array binding signal (z-score)” value (Gal6S(b1-4)Glc) of the same binder?
**A.** Its value is -0.213.

**Q.** And the “glycan array binding signal (z-score)” value (Gal6S(b1-4)Glc6S)?
**A.** The value was 0.046.

**Q.** And the “glycan array binding signal (z-score)” value (Gal6S(b1-4)GlcNAc)?
**A.** Its value is 1.48.

**Q.** What about the “glycan array binding signal (z-score)” value (GalNAc(a1-3)Gal) of the same binder?
**A.** Its value is 0.296.

**Q.** And the “glycan array binding signal (z-score)” value (GalNAc(a1-3)GalNAc)?
**A.** Its value is 0.449.

**Q.** What about the “glycan array binding signal (z-score)” value [1] of the same binder?
**A.** Its value is -0.337.

**Q.** What about the “glycan array binding signal (z-score)” value (GalNAc(b1-3)GalNAc) of the same binder?
**A.** The value was -0.192.

**Q.** And the “glycan array binding signal (z-score)” value (GalNAc(b1-4)GlcNAc)?
**A.** Its value is -0.243.

**Q.** What about the “glycan array binding signal (z-score)” value (Glc(a1-4)Glc) of the same binder?
**A.** Its value is -0.118.

**Q.** And the “glycan array binding signal (z-score)” value (Glc(a1-6)Glc(a1-6)Glc)?
**A.** The value was -0.323.

**Q.** And the “glycan array binding signal (z-score)” value (Glc(b1-4)Glc)?
**A.** The value was -0.165.

**Q.** And the “glycan array binding signal (z-score)” value (Glc(b1-6)Glc)?
**A.** The value was -0.444.

**Q.** What about the “glycan array binding signal (z-score)” value (GlcA(b1-3)Gal) of the same binder?
**A.** The value was -0.274.

**Q.** And the “glycan array binding signal (z-score)” value (GlcA(b1-6)Gal)?
**A.** The value was -0.09.

**Q.** And the “glycan array binding signal (z-score)” value [2]?
**A.** Its value is 1.18.

**Q.** And the “glycan array binding signal (z-score)” value [3]?
**A.** Its value is -0.302.

**Q.** And the “glycan array binding signal (z-score)” value [4]?
**A.** Its value is -0.326.

**Q.** And the “glycan array binding signal (z-score)” value [5]?
**A.** Its value is -0.332.

**Q.** What about the “glycan array binding signal (z-score)” value (GlcNAc(b1-3)Gal) of the same binder?
**A.** The value was -0.074.

**Q.** And the “glycan array binding signal (z-score)” value [6]?
**A.** Its value is -0.162.

**Q.** What about the “glycan array binding signal (z-score)” value (GlcNAc(b1-3)Gal(b1-4)Glc) of the same binder?
**A.** The value was 8.86.

**Q.** And the “glycan array binding signal (z-score)” value [7]?
**A.** Its value is -0.028.

**Q.** And the “glycan array binding signal (z-score)” value [8]?
**A.** Its value is -0.244.

**Q.** And the “glycan array binding signal (z-score)” value (GlcNAc(b1-3)GalNAc)?
**A.** Its value is -0.325.

**Q.** What about the “glycan array binding signal (z-score)” value [9] of the same binder?
**A.** The value was -0.291.

**Q.** And the “glycan array binding signal (z-score)” value [10]?
**A.** Its value is -0.215.

**Q.** What about the “glycan array binding signal (z-score)” value [11] of the same binder?
**A.** The value was -0.103.

**Q.** And the “glycan array binding signal (z-score)” value [12]?
**A.** Its value is -0.27.

**Q.** And the “glycan array binding signal (z-score)” value [13]?
**A.** Its value is -0.335.

**Q.** What about the “glycan array binding signal (z-score)” value [14] of the same binder?
**A.** The value was -0.326.

**Q.** And the “glycan array binding signal (z-score)” value [15]?
**A.** Its value is -0.371.

**Q.** What about the “glycan array binding signal (z-score)” value [16] of the same binder?
**A.** The value was -0.205.

**Q.** And the “glycan array binding signal (z-score)” value [17]?
**A.** The value was -0.304.

**Q.** What about the “glycan array binding signal (z-score)” value (GlcNAc(b1-6)GalNAc) of the same binder?
**A.** Its value is -0.365.

**Q.** And the “glycan array binding signal (z-score)” value (Kdn(a2-3)Gal(b1-3)GlcNAc)?
**A.** Its value is -0.342.

**Q.** And the “glycan array binding signal (z-score)” value (Kdn(a2-3)Gal(b1-4)GlcNAc)?
**A.** Its value is -0.182.

**Q.** What about the “glycan array binding signal (z-score)” value [18] of the same binder?
**A.** The value was 0.121.

**Q.** And the “glycan array binding signal (z-score)” value [19]?
**A.** Its value is 0.169.

**Q.** And the “glycan array binding signal (z-score)” value (Man(a1-2)Man(a1-3)Man)?
**A.** Its value is -0.245.

**Q.** What about the “glycan array binding signal (z-score)” value [20] of the same binder?
**A.** The value was 0.052.

**Q.** What about the “glycan array binding signal (z-score)” value [21] of the same binder?
**A.** Its value is -0.311.

**Q.** And the “glycan array binding signal (z-score)” value [22]?
**A.** Its value is -0.017.

**Q.** And the “glycan array binding signal (z-score)” value [23]?
**A.** Its value is 0.038.

**Q.** And the “glycan array binding signal (z-score)” value (Man(a1-3)[Man(a1-6)]Man)?
**A.** Its value is -0.014.
